Whole data set: some 33,000 sequences, median “E-score (-0.5 to 0.5)” near -0.041, cut for the highest 2% near 0.37. The list shows a part of the results.
What follows are sequences tested against T1, Ecm22 (UniProt Q05958) (assay: PBM E-score (8-mer binding enrichment) (E-score (-0.5 to 0.5)); higher = stronger / more preferred TF binding; most listed sequences are background and not binding sites). Conditions: protein concentration: 200 nM; construct: GST-full length.
T1 sequence: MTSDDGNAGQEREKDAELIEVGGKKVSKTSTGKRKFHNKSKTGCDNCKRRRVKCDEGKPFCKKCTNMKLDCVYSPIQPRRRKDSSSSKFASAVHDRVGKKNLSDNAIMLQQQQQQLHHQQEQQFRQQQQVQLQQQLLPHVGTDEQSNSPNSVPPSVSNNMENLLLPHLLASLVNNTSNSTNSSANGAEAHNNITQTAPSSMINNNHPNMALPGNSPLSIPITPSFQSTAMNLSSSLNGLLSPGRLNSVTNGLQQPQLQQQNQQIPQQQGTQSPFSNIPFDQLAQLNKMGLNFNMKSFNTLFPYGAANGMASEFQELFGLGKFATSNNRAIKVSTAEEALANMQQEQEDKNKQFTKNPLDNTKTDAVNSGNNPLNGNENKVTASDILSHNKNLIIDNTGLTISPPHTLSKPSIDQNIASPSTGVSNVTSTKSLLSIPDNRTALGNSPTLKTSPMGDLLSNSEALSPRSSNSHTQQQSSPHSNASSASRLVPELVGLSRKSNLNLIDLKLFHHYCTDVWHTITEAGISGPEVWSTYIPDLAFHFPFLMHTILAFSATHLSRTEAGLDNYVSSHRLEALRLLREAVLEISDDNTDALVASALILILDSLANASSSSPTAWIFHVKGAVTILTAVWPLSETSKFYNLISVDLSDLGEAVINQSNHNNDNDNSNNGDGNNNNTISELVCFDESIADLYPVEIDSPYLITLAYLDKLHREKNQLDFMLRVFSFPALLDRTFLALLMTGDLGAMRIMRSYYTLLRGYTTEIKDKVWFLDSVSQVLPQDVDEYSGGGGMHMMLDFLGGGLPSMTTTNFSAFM
How it was run: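 Detection of bound protein used fluorescent anti-GST, with scans normalised by masliner. The proteins were GST-tagged yeast transcription factors applied at about 100-200 nM to universal all-10-mer Agilent arrays made double-stranded by primer extension. Each ungapped eight-base word, pooled with its reverse complement, was scored with an E-score from the Universal PBM Analysis Suite.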

Sequence	PBM E-score
AATAAGAC	-0.171
AAGCCCGA	-0.0754
CGAGAATC	0.227
ATCGACCA	-0.0651
ACACAATC	-0.0435
AGGACTCG	0.0228
GACAAATA	0.0672
CAGGGATC	-0.2
ACCCGCAC	-0.063
TGATTGCA	-0.0481
AAATCCCG	0.0266
AGGATTGC	-0.141
CAGACGGG	-0.169
ATGATATC	0.127
CGCCGCTC	0.0325
ATGAGCCA	-0.173
CCCCACGC	-0.344
GCTATGAC	-0.0387
AGCCAATC	-0.0209
ACGTCAGC	-0.0216
CCGTCACG	-0.141
GAGTGGAA	-0.03
AGGGCCAA	-0.381
CGTAGTAA	0.195
AATCCAGG	0.0632

Sequence	PBM E-score
ACAGACGA	0.161
AATGCGAT	0.112
TCCGAGCA	0.236
ACCTAGCA	-0.0648
CCAAAGGC	-0.157
GAAGGCAA	-0.00459
AAGATATG	0.029
ACGGTTTC	0.23
ACGTCTCA	-0.0873
GCACATAC	-0.208
CACGTGAG	-0.229
GCCCGATA	-0.166
CCGCAAAG	0.0479
CTAGCTCA	-0.0782
CATGGATC	-0.227
AGTATGCC	-0.134
AGGAGCAA	-0.154
CTGGTCGA	-0.161
AATTCGAA	-0.0672
GATAGTTA	0.227
TAAAACCA	-0.00311
GCATGCAA	0.0969
ATCTGCGC	-0.135
ACGCGCTA	0.216
CAGGCAAG	-0.254

Sequence	PBM E-score
CGCCGCCC	-0.0997
CTGCAGCA	-0.0773
CTTCAGTA	-0.0196
AAGGTAGG	-0.18
GAGGAAAA	-0.0267
CGATCATA	0.155
TGGTGAAA	-0.046
CAGGTCAA	-0.195
GGACGCCC	-0.126
AACGGTCT	0.0502
AAACACTG	-0.0685
CCAGGTCG	-0.0864
GCAAGACA	-0.113
GTTAATAA	0.159
CTGTCGAC	0.0179
CCACGGCG	0.0206
TGGCCCAA	-0.0847
AGTGATTG	-0.129
ACGAGTGG	0.331
CCGGTGGA	0.0344
ACGTCGTA	0.464
ATTCTAGA	-0.0426
AGCCCATC	-0.0704
ACGACACT	0.278
ACAGTCGC	0.122

Sequence	PBM E-score
CCACTCTC	-0.0812
AGGCTCGA	-0.0988
GGGCAGCA	-0.265
CCGACCAA	0.105
AAATGGTC	0.0301
TACCGACA	0.198
ATCTCAGC	-0.176
CGCATTCC	-0.285
AAAGCCAT	0.0454
CACAGGGC	-0.186
CACGGCAA	0.0928
AACATCAG	-0.198
TACGGAAA	0.305
CGTGCCCA	0.0434
ATCGCAGA	-0.00881
ACTAAGCG	0.248
GTGAGTGA	-0.118
ACCCTAAC	-0.0421
GCCAAAGC	-0.31
AATGATAG	0.17
ATCGTTTG	0.414
GACTACAC	0.0822
CTAACTTA	-0.0664
GCACCTGC	-0.163
GAACCAGC	-0.136

Sequence	PBM E-score
ATAGTGTG	-0.0602
CACGGATC	0.0362
ACCTAAAT	0.112
GGGTCTAC	-0.0108
GGTCAGGA	-0.165
CTTCCTAC	-0.303
GGATAGCA	0.0911
CTGTTAGA	-0.127
GCGGAGCA	0.0503
AAGCACTC	-0.108
ACATCTTA	-0.148
AATTTCAC	-0.0785
ACTCGTCT	0.172
CGCATAGC	0.208
ACACTGTC	-0.0828
ACGAAGAT	0.356
TCGGGGAA	0.0444
CCCACGAC	-0.242
CGGGTTAG	0.0278
CCAACTCC	0.012
AATTGAGC	-0.113
CGAGGGAA	0.231
CTATTGGC	-0.0898
GGGAACAA	0.143
GAGTGAGC	-0.1

Sequence	PBM E-score
AAGGTCAG	-0.208
AGTCCGCG	-0.115
ACTGTACT	-0.12
ATCATGTC	0.0643
ATAATAGG	-0.0448
CTCTATTA	-0.0358
CAGAGGGG	-0.249
AAGGCTAG	-0.0859
CGTTGGCC	-0.151
ACCCTGTA	-0.145
CTATTTTA	-0.0646
ATCGTTAA	0.403
CCAACAAG	-0.194
GTAATGTA	-0.14
CCTGGTAC	0.11
AGTGGTCC	-0.104
CGTTACAG	0.169
GTTACACA	-0.0371
AGGGTTCA	-0.224
CAACTCTC	-0.11
CCAATCCC	-0.114
ACTATCTC	-0.0244
CGTATGTC	0.342
AAGTTAAC	0.132
CAGTGCAA	-0.0245

Sequence	PBM E-score
GTTTCTAA	0.211
TACACCCA	-6e-05
CAAATTTG	0.129
GTTTACTA	0.182
GGCGTTTA	0.166
CACCATAC	0.13
GTTGACGA	-0.0872
ATAAATTA	0.326
ACCAGTCA	-0.218
CTATCAAC	0.0893
GCTTCCCA	0.00671
TTAATGAA	0.0772
CTATGCTA	-0.116
AAAGCTTC	-0.111
ATATCGAT	0.136
ATGTTGAC	-0.0435
CAGGGGGA	-0.365
GAGTCTAC	-0.0119
CCTACACG	-0.0384
CCTTGCGC	-0.158
CCAAAGGG	-0.183
ACAGCAGA	0.152
GGACATCC	-0.143
AGCTCCCC	-0.165
ACATATGT	-0.0583

Sequence	PBM E-score
CGATCTGA	0.0252
ACAGCGGC	-0.036
ACGGTGTC	0.106
GACCGCTC	-0.0038
CTCTCCAG	-0.235
CCGGCTTA	-0.171
AAACCCGT	0.0436
CCCTACAG	-0.267
GATTCAGA	-0.0139
ATCTTCAC	-0.0804
ACGCTTCA	-0.111
AGGACAAA	0.00676
GCGCGATA	0.114
TGCAGAAA	0.228
GACCCTGA	-0.126
AAACCGCA	-0.0384
AGTAGGTG	-0.34
TCGGGACA	-0.0251
CATCTATC	-0.132
CCCGGTTC	0.0413
CACGTTCA	-0.131
AAATTGCA	0.068
ATTGAGTC	-0.162
GTCTACGA	0.304
AGTTGTCC	-0.0556

Sequence	PBM E-score
GTCTAACA	-0.339
GTACCGTA	0.364
CTCTATCA	-0.234
GATTGGGC	-0.165
GGAAAACA	-0.0128
ACTGACCT	-0.0986
CAAACGTA	0.186
AGGCTACC	-0.215
ATGTTTTG	0.0401
CAGTACGG	0.27
GCTTGCCC	-0.293
GCGTCAGC	-0.0491
CGCTATAC	0.337
GTCTCAGA	-0.305
CGATAAAC	0.259
GATTAATA	0.0922
TAAAACAA	-0.00922
GGGGAATA	-0.213
ATAACGAC	0.203
CCAACGAC	0.0154
ACCAGACC	0.138
GAGAATTA	-0.0719
ACCTCCGG	-0.113
AGAATCCA	-0.14
GATTAGTA	0.0853

Sequence	PBM E-score
CGACTCGC	0.284
AAGATATT	-0.183
GTATGTTA	0.201
CCGAAGCG	0.13
AAGGGAAA	-0.28
ACGAGGCC	0.376
AACGGGGG	0.167
GCTTTCAC	-0.0514
ACTTCCAC	-0.13
ATGGTGTG	-0.0904
ATGTTGCG	0.0646
CATACTAG	-0.0362
AGGTACCA	0.00827
AGATCAAC	0.024
ATCTAAGC	-0.0203
ATCCAACA	-0.157
CCTGTATC	-0.0489
GCCGAGTA	0.0615
ACTGTGCG	0.0745
ACCTCCGA	-0.0432
ATTGTGTG	-0.164
ACCGGTGA	0.0428
CACCCCCG	-0.2
CCCACACG	-0.0368
AGGTTTTG	-0.0614

Sequence	PBM E-score
ATCTACCC	0.0111
CCATTACG	0.0387
GCCCTCCA	-0.252
ACAACTGA	0.096
ACAACTCT	-0.0522
AACACAAC	0.183
AAAGCAAT	-0.109
GAAGCTAC	0.0734
AAATACCA	-0.0648
TGTCCTAA	-0.0604
AGAGTATC	0.192
GGATGGCA	0.0441
TACGTATA	0.401
AAGGGACA	-0.238
GGCTTACA	-0.161
GGGGCGAA	-0.169
GCATTCTA	-0.0832
CACCCCCA	-0.253
CGAAAGGA	0.057
AAAGCACG	0.119
AAAGCGAG	0.283
AAGACCTG	-0.253
CCAAACAC	0.0858
GCGTGGGA	0.0285
AATACCAG	0.0286

Sequence	PBM E-score
AACCGCTG	0.0452
ACGTGTCC	-0.203
CTAGCTGA	-0.0563
TGCGGGAA	0.0898
AGTTATCC	-0.0306
GAAATTGA	-0.0483
GCTCAACC	-0.0868
AAGAGAAA	-0.221
AGTAAGAA	-0.0334
GTTAAAGA	0.0605
AATCAGGC	-0.211
GATTGAGC	0.0976
ACCCTCCT	-0.209
CAGTAGCA	0.00647
ATGGCGAG	-0.0404
CAGCCGTA	0.27
ACGTACGA	0.441
AGTATGGA	-0.115
AGCCCGTG	-0.0881
CACGATGA	0.19
GGGCCGGA	-0.107
GGTGCAAA	-0.0673
ATACCAGA	-0.0074
ACCAGACG	-0.112
ACAGAGGG	-0.13

Sequence	PBM E-score
ATTGTATC	-0.0265
CCCCAGGC	-0.326
ATCAACCG	-0.0038
CTCACGGA	-0.119
ATTGGGAC	-0.192
ACACTGCC	-0.0292
GTGAATAA	-0.162
ATGCTTTG	-0.128
AGACACAA	-0.272
CGTAAAAA	0.404
AGGACCCT	-0.235
ATAATTAT	0.311
CCTCTACC	-0.222
ATAAATGC	-0.164
CTTGTGCC	-0.148
ACCTTTCT	-0.00148
GGGATTAC	-0.077
GTCATCCA	-0.259
ATTCGGCC	-0.0473
TATGCATA	-0.287
TGGTTAAA	0.0541
CTCAGAGA	-0.116
CATTTAGA	-0.0541
ACTTTCCA	-0.205
CGCACATC	0.154

Sequence	PBM E-score
CTCTCGTC	0.0625
ATATCGTG	0.147
AATGGCCG	-0.129
AAGGAACA	-0.175
GAAGTGCC	-0.0811
ACCATTCC	-0.0508
ACGGACAG	0.0603
GAGCCGGA	-0.0216
AGCAAGGG	-0.15
CTTTGTAA	0.0224
AAAGAACG	0.232
AACGTACC	0.297
CGTTGGAA	0.0549
AGTAACCG	0.109
CCTCCCCA	-0.196
AACATTGC	-0.111
CGTAGGGA	-0.0369
AACTCAGC	-0.175
CAATGAAA	-0.155

Source: the supplement of paper PMC3334620
